# Measurements from paper PMC4336329 (PLoS ONE, 2015).
# The whole screen tested about 310,000 compounds, of which about 14,000 (4.5%) showed an effect of 50% or more. The effect is printed as a negative number. Some of the results follow.
# Molecular target: human ether-à-go-go-related gene (hERG) potassium channel (human, UniProt Q12809)
# Assay: primary screen, population patch clamp on CHO cells stably expressing hERG
# 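Also: peak tail current of the secondary pulse compared with the same well before compound.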
# human ether-à-go-go-related gene (hERG) potassium channel, sequence (Q12809 whole entry, looked up): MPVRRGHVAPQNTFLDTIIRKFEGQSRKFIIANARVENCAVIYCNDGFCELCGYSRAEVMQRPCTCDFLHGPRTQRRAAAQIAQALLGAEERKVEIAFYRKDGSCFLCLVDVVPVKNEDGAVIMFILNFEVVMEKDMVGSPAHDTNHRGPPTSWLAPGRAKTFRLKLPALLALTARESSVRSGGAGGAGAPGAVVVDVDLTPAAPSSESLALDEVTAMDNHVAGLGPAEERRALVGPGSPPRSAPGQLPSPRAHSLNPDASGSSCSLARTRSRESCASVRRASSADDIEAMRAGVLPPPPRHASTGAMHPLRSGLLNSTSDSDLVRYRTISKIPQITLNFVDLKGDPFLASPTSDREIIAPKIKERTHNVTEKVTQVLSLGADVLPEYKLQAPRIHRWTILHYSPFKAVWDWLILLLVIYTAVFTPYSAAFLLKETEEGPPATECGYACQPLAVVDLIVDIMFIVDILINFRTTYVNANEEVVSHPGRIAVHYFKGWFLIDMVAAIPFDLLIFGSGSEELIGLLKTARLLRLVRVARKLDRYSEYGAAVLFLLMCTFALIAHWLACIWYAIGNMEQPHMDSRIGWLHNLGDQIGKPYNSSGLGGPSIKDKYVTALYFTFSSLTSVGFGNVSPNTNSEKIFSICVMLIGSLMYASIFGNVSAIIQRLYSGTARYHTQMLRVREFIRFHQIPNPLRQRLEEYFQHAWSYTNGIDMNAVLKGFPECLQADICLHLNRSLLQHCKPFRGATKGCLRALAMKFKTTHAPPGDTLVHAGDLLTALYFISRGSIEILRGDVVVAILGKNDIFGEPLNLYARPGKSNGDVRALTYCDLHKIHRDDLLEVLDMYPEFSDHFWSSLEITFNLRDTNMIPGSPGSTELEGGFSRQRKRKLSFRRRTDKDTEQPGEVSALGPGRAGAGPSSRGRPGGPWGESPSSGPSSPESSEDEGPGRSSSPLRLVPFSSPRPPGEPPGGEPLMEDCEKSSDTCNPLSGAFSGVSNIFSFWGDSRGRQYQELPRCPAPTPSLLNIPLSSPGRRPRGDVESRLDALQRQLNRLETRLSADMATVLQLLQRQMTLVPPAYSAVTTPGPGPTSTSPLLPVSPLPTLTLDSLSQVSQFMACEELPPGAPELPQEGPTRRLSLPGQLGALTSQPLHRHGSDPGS
row,Compound,"hERG current change (%, negative = inhibition) at 10uM"
1,O=C(CCCSc1nc2ccccc2[nH]1)N1CCN(c2ccccc2)CC1,-60.2%
2,COc1cc(C(=O)Nc2ccc(NC(=O)c3ccccc3Cl)nc2)cc(OC)c1OC,5.54%
3,CN1CCC(N(C)C(=O)c2cccc(S(=O)(=O)N3CCOCC3)c2)CC1.Cl,3.25%
4,Cc1ccc(N(C)C(=O)c2cc(S(=O)(=O)N3CCCCC3)c[nH]2)cc1,4.34%
5,Cn1c(=O)n(C)c2cc([N+](=O)[O-])c(N3CCN(C(=O)c4cccc(F)c4)CC3)cc21,-32.7%
6,COc1ccc2cc(C(c3nnnn3C(C)(C)C)N3CCSCC3)c(=O)[nH]c2c1 (stereo not drawn),-31.7%
7,CCN(CC)CC(=O)n1c2c(c3ccccc31)CCCC2,-34.2%
8,O=C(Cc1ccc(Cl)cc1)Nc1ccc(Br)cn1,-1.7%
9,CC(Sc1nnc(CN2CCCC2)n1Cc1ccccc1)C(=O)Nc1ccccc1 (stereo not drawn),-43.1%
10,CCC(=O)N1CCNC(=O)C1CC(=O)Nc1ccc(C)c(Cl)c1 (stereo not drawn),1.09%
11,O=C(CCC1=NS(=O)(=O)c2ccccc2N1)NC1CCCCCCC1,2.57%
12,COc1ccc(CNC(=O)COc2cc(O)c3c(c2)OC(C)(C)CC3=O)c(OC)c1,-22.8%
13,COC(=O)c1ccc(OCC(O)CN2CCOCC2)cc1 (stereo not drawn),15%
14,S=C1NC[C@H](c2ccccc2)N1CCCCC1CCCCC1,17.5%
15,CC(C)n1cnc2c(Nc3cccc(Cl)c3)nc(N(CCO)CCCO)nc21,-45.7%
16,CCOC(=O)C1CCCN(c2ncnc3c2cnn3-c2ccc(OC)cc2)C1 (stereo not drawn),-33.1%
17,COC(=O)CNC(=O)CSc1nc(N)cc(=O)[nH]1,-4.11%
18,O=C(Cn1nc(-c2ccccc2)ccc1=O)NCc1ccc(F)cc1,-17.6%
19,CC(CNS(=O)(=O)c1cc(Cl)ccc1Cl)CN(C)C (stereo not drawn),12.2%
20,C/C(CCS(=O)(=O)c1ccccc1)=N/O,8.64%
21,Cc1ccccc1N1CC(C(=O)Nc2nnc(SCc3ccccn3)s2)CC1=O (stereo not drawn),13.4%
22,O=C(c1ccc(F)cc1F)N1CCCC(c2nc(-c3ccc(F)cc3)no2)C1 (stereo not drawn),-18.5%
23,CCOc1ccc(-n2cc(-c3ccc(OC)c(OC)c3)[nH]c2=S)cc1,13.1%

row,Compound,"hERG current change (%, negative = inhibition) at 10uM"
1,CN(C)C(=O)CSc1nnc(Cc2ccccc2)n1Cc1ccco1,-0.266%
2,O=C(CC1SCCNC1=O)Nc1cccc(C(F)(F)F)c1 (stereo not drawn),-23.5%
3,CCCNC(=O)c1cccc(Cn2cc(Br)c([N+](=O)[O-])n2)c1,-20.2%
4,CCCn1c(=O)c(C(=O)NCc2ccncc2)c(O)c2ccccc21,-63%
5,COc1ccc2oc(C(=O)N3CCN(C(c4ccccc4)c4ccccc4)CC3)c(C)c2c1,-23.4%
6,CCOc1cc(/C=N/NC(=O)c2ccc(CN3CCOCC3)cc2)ccc1OCc1ccccc1,-18.2%
7,O=C(CNC(=O)c1ccccc1)N/N=C/c1cc(Br)ccc1O,-3.75%
8,S=C(NCc1ccccc1Cl)Nc1ccccc1Cl,-8.63%
9,Cc1oc2cc3oc(=O)c(CC(=O)NCC(=O)N[C@@H](C(=O)O)c4ccccc4)c(C)c3cc2c1C,9.65%
10,Cc1c(Br)c([N+](=O)[O-])nn1C(C)C(=O)NCc1cccnc1 (stereo not drawn),-14.6%
11,O=C(O)C1Nc2ccc(Br)cc2C2C=CCC12 (stereo not drawn),8.3%
12,COC(=O)CCCC(=O)NC1CC(C)(C)Cc2c1cnn2-c1ccc(C)cc1 (stereo not drawn),-24.7%
13,O=C(O)C(=O)O.O=S(=O)(c1ccccc1F)N1CCN(Cc2nc3ccccc3[nH]2)CC1,-13.2%
14,O=[N+]([O-])c1ccc(C[n+]2cccc(O)c2)cc1.[Br-],-14.9%
15,CN1CCN(c2oc(Cc3cccc4ccccc34)nc2C#N)CC1,-9.75%
16,CCC(Oc1cccc(C)c1)C(=O)Nc1ccccc1C(=O)N1CCOCC1 (stereo not drawn),2.61%
17,CCOc1ccc(OCC)c(NC(=O)CNS(=O)(=O)c2cccs2)c1,-1.5%
18,CC(=O)c1ccc(OCC(C)Oc2ccc(C#N)cc2)cc1 (stereo not drawn),-62.8%
19,CCN(CC(=O)Nc1ccccc1C(F)(F)F)C(=O)CCc1nc2ccccc2c(=O)[nH]1,12.5%
20,COc1ccc(NC(=O)/C(C#N)=C/c2ncc([N+](=O)[O-])n2C)c(OC)c1,5.21%
21,O=[N+]([O-])c1ccccc1/C=N/n1c(C2CCCCC2)n[nH]c1=S,-5.59%
22,c1ccc(NC2=NCCN2CCC2CCCC2)cc1,-24%
23,O=C(CSc1nnc(-c2ccc(Br)cc2)o1)Nc1cccc2ccccc12,-3.23%

row,Compound,"hERG current change (%, negative = inhibition) at 10uM"
1,O=Cc1c(OCc2ccccc2)ccc2ccccc12,7.01%
2,CN(C)N=Nc1ccc(-c2cn(Cc3ccccc3)cn2)cc1,11%
3,CCNC(=O)C(=O)NCC(c1cccs1)S(=O)(=O)c1ccc(C)cc1 (stereo not drawn),6.71%
4,O=C(N/N=C/c1ccccc1)c1ccc(NC(=O)c2ccc(F)cc2)cc1,11.7%
5,COc1ccc(S(=O)(=O)Nc2ccc3c(c2)COC3=O)cc1OC,-18.7%
6,CCC(C)n1c(S(=O)(=O)O)nc2ccccc21 (stereo not drawn),-0.777%
7,CN1CCN(c2nc(Nc3cccc(C(F)(F)F)c3)nc(N3CCOCC3)n2)CC1,-60%
8,CCc1nc(N(CC)CC)c2oc3ccccc3c2n1.Cl,-21.1%
9,COc1ccc(C(=O)Nc2nc(CC(=O)NCCc3ccccc3)cs2)cc1,-23.4%
10,COc1ccccc1OCCC(=O)N1CCN(c2ccccc2OC)CC1,3.23%
11,CC(CC(=O)NCc1ccccc1)C1CCCO1 (stereo not drawn),19.3%
12,Nc1ccc(N=Nc2ccccc2)cc1,28.3%
13,NNC(=O)COc1ccc2oc3c(c2c1)CCCC3,19.9%
14,Cn1cccc1Cc1nnc(SCC(=O)NCc2ccccc2)n1-c1ccc(F)cc1,-19.5%
15,O=C(Nc1ccccc1-c1nc2ccccc2[nH]c1=O)c1cccs1,2.16%
16,CCCC(C)NC(=O)COC(=O)c1ccc(Cl)c(S(N)(=O)=O)c1 (stereo not drawn),8.02%
17,CC(C)=CCN1CCN(Cc2ccc(C)s2)CC1CCO (stereo not drawn),-16.1%
18,CC(NC(=O)C1CCN(C(=O)c2cccs2)CC1)c1ccc(S(N)(=O)=O)cc1 (stereo not drawn),3.01%
19,CCOc1ccc(C(=O)NC(=S)Nc2ccccn2)cc1[N+](=O)[O-],-2.48%
20,O=C(COC(=O)c1c(Cl)cccc1Cl)Nc1cccc(S(=O)(=O)NC2=NCCCCC2)c1,-20.4%
21,COCC(=O)Nc1sc2c(c1C(=O)OC)C(C(=O)OC)CC2 (stereo not drawn),-4.51%
22,Cc1csc(NC(=O)CSc2nc(=O)n(CCN(C)C)c3c2CCCC3)n1,-55.9%
23,Cn1c(/C=C/c2ccc(Cl)cc2)nc2ccccc2c1=O,15.8%

row,Compound,"hERG current change (%, negative = inhibition) at 10uM"
1,CC(C)/C=C/C(=O)N1CCCC(N2CCN(c3ccccc3F)CC2)C1 (stereo not drawn),-33.4%
2,Cc1cc(C(=O)NCCC2=CCCCC2)no1,-7.77%
3,CNC(=S)N1CCN(c2cccc(OC)c2)CC1,-7.23%
4,Cc1ccc(C)n1-c1ccc(-c2ccn[nH]2)cc1,-10%
5,CC(C)(C)c1ccc(C(=O)NCc2ccco2)cc1,-2.98%
6,Cc1cc(C(=O)COC(=O)COc2ccc(C#N)cc2)c(C)n1C1CC1,16.9%
7,O=C1CC(c2ccccc2)CC(O)=C1C=NCCCO (stereo not drawn),5.91%
8,CCOc1ccc(NC(=O)CN(C)C(=O)c2cc(C)nc3ccccc23)cc1OCC,-16.2%
9,COC(=O)c1ccc(NC(=O)COC(=O)C2CCC2)cc1,4.03%
10,CCOC(=O)N1CCN(S(=O)(=O)c2ccc3c(c2)CCN3C(=O)C2CC2)CC1,-11.5%
11,C[N+]1(CC(O)COc2ccccc2)CCN(C(=O)c2ccc([N+](=O)[O-])cc2)CC1.[I-] (stereo not drawn),-9.95%
12,O=C(CCN1C(=O)[C@@H]2Cc3ccccc3CN2C1=O)NCc1ccccc1,-12%
13,COc1ccc2nc(C)cc(SCC(=O)N/N=C/c3c(OC)ccc4ccccc34)c2c1,12.8%
14,COc1cc(NC(=O)C/C(C)=N/NC(=O)c2ccccn2)c(OC)cc1Cl,-2.91%
15,CCOC(=O)COc1ccc(S(=O)(=O)N2CCN(c3ccc(F)cc3)CC2)cc1,-60%
16,Cc1nn(-c2nc3ccccc3s2)c(N)c1Sc1ccc(F)cc1,7.4%
17,O=C(COC(=O)c1ccc2ccccc2n1)NCc1ccccc1,13.7%
18,Cn1c(NCCN2CCCCC2)cc(=O)n(C)c1=O,13.7%
19,CC(C)C(NS(=O)(=O)c1ccccc1)C(=O)NC1CCCC1 (stereo not drawn),-17.1%
20,CCC(C)[C@H](NC(=O)N1CC(=O)Nc2ccccc21)C(=O)N[C@H](Cc1ccccc1)C(=O)O (stereo partly drawn),4.31%
21,CC(C)(C)NC(=O)CCCSc1nc2ccccc2s1,-24.4%
